# The full ranking holds about 33,000 sequences; the median of “E-score (-0.5 to 0.5)” is about -0.043, and the highest 2% start at about 0.37. This is one part of the list.
# Target: T1, Upc2 (UniProt Q12151)
# T1 sequence: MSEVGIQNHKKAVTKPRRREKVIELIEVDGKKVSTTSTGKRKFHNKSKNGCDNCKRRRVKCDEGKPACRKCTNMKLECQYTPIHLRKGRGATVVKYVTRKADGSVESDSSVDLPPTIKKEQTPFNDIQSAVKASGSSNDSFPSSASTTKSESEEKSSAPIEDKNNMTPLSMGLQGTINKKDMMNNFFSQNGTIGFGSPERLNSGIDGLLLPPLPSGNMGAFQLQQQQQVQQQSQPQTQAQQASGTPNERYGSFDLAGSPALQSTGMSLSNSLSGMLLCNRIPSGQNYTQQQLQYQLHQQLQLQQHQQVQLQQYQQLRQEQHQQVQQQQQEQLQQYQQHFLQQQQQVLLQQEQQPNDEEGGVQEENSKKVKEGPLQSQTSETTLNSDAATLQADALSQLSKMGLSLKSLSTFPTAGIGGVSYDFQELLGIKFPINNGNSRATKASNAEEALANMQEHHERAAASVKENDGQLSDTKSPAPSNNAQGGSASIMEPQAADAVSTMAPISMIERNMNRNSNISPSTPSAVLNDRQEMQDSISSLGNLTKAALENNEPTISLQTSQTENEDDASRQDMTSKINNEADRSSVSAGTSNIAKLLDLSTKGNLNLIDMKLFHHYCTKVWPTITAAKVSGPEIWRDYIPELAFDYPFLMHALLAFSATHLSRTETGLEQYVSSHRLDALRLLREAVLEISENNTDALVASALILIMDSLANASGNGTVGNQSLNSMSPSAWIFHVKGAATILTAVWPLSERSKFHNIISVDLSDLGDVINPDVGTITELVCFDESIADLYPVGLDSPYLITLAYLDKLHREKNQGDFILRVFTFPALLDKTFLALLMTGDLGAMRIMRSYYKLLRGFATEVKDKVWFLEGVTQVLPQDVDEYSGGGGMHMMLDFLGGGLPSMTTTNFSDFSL
# Assay: PBM E-score (8-mer binding enrichment) (E-score (-0.5 to 0.5)); higher = stronger / more preferred TF binding; most listed sequences are background and not binding sites
# Conditions: protein concentration: 200 nM; construct: GST-full length
# Outline: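 Full-length yeast transcription factors or their DNA-binding domains, GST-tagged and expressed with PURExpress, were applied at about 100-200 nM to universal all-10-mer Agilent arrays. These arrays had been made double-stranded by primer extension on fresh or once-stripped slides. Detection used fluorescent anti-GST, normalisation used masliner, and E-scores for ungapped eight-base words pooled with reverse complements came from the Universal PBM Analysis Suite.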
row,Sequence,PBM E-score
1,GCCATAAA,0.0123
2,AATCCAAT,-0.119
3,GGTAAACC,-0.133
4,AGCGGCAA,-0.15
5,GAGCCCCA,-0.114
6,AATTGAAC,0.0865
7,CCATACAG,0.00071
8,ACCCCTGG,-0.234
9,ACTATAGA,-0.237
10,GTCACGCA,-0.0435
11,ACCACCGG,-0.171
12,CAGCAAGC,-0.18
13,ACTCACTC,-0.07
14,CACCACTC,-0.114
15,CATTTGCA,0.193
16,AAGTTGAA,-0.031
17,CCATACTC,-0.0832
18,AGAACCTA,-0.057
19,ATGTCTCG,0.24
20,AGTTCAAG,0.129
21,ACCATCTA,-0.129
22,GCCTATGA,-0.231
23,AGCGCGCA,0.0723
24,AATCCCTC,-0.0204
25,CGAGCTTC,0.241

row,Sequence,PBM E-score
1,TAGCTTAA,0.0918
2,ACTATGCA,-0.0697
3,TAATATAA,0.132
4,GAAGCGCC,-0.08
5,GCTGACTA,-0.208
6,GACGCAAA,0.139
7,AAGGATGC,-0.0224
8,CCTGCTAG,-0.354
9,ACATCTCG,0.14
10,AGGCATTC,-0.298
11,AATGAGTG,-0.1
12,ATGCGGTC,-0.0656
13,CTGATCGC,-0.0401
14,AAGAATCC,-0.0798
15,CCATGCGA,0.101
16,CCCGCCCC,0.0468
17,ATCACTAA,0.0237
18,AAACACCT,-0.0522
19,TATCGTGA,0.0236
20,AGGTGTAC,0.117
21,AGTTCCAT,-0.0936
22,GAGTACCA,-0.183
23,GCGCTGAA,0.0222
24,AAGAAAAA,-0.145
25,ATGACCTG,-0.0326

row,Sequence,PBM E-score
1,ACGCACCG,0.174
2,CGTTGCGA,0.177
3,CTACTGAG,-0.133
4,TCCAAAGA,-0.108
5,CCTCAATA,-0.253
6,ATTACTGA,-0.0354
7,AAGATGTG,0.0164
8,ACGCCCAC,-0.0667
9,GGACTACC,-0.214
10,GGTTGTGA,0.0133
11,TTAGACAA,0.0412
12,GGCGTCTA,-0.152
13,CGCTCCGC,0.0891
14,CCAGCACA,-0.33
15,TAGGCTAA,-0.052
16,GTAGTGAA,-0.143
17,GAACAAAA,0.0641
18,TCTTTGAA,0.0294
19,CACTATCA,-0.118
20,ATTTCTAG,-0.083
21,ACCCAGGA,-0.0144
22,CCCACATA,0.0708
23,CAGTTCAA,-0.141
24,AACCAAAA,-0.119
25,ATCCTTTA,-0.0362

row,Sequence,PBM E-score
1,ATTTATGA,-0.114
2,ACGGTTAA,0.176
3,ATGATCGG,-0.0909
4,GTGTATGA,-0.0258
5,AGAGGTAT,0.119
6,CACGCGAA,0.0534
7,CACAAGTG,-0.151
8,AATCTGCA,-0.254
9,ACAGGCGC,0.112
10,AGCAGAAG,-0.255
11,GAAGGATA,-0.254
12,AAATTATC,0.168
13,CGTTTGAC,0.363
14,GACGTAAC,0.0258
15,GTGTAGGA,-0.179
16,AGATTGAC,-0.0535
17,CGAGTCAC,0.0984
18,CCGCGAGA,-0.027
19,GAGCGCAA,-0.0567
20,TCGTATCA,0.463
21,GCGGGTTA,0.134
22,AATCCTAC,-0.00843
23,CATCAAGC,-0.0919
24,AGTCCAGC,-0.11
25,ATTCGGCA,0.0687

row,Sequence,PBM E-score
1,CCATAACA,-0.0637
2,AGTCTTAA,-0.185
3,ATTTCTAA,-0.105
4,AGCGCGAC,-0.115
5,CCCAGAAC,0.0405
6,ATTGGGTC,-0.155
7,CTAGCTAA,0.0343
8,ACCGCTCG,0.123
9,GTTGAGTA,0.0018
10,CGGAGTTC,0.0843
11,AATTGTGA,0.0573
12,AGTCCCAA,-0.127
13,CGATTCCA,-0.0418
14,AACATTCC,-0.255
15,AACCTTTG,-0.165
16,GGCCGCCC,-0.272
17,GGTTAACC,-0.0722
18,AAGCGTCA,0.0424
19,ATGAAACC,-0.157
20,CGAGGTTC,0.178
21,AGGTTACC,0.0246
22,TAAGTCTA,-0.196
23,GCACTGAA,-0.229
24,ATCAGCTC,-0.112
25,ATGTAGTA,-0.00889

row,Sequence,PBM E-score
1,CGGCCCCC,-0.2
2,CTTTAGGA,-0.167
3,TGTTGAAA,0.0958
4,CTAACCCA,-0.27
5,TGTGAGAA,-0.0856
6,TCCACCCA,-0.276
7,GAGAGTCA,-0.178
8,ACGGGATC,0.253
9,CAGCACGA,0.0496
10,GAACGGCA,0.27
11,GCCGCTAC,0.00233
12,AGTATGTG,-0.00679
13,CACGTAAC,0.039
14,GGGATTTA,-0.0717
15,ATGAGCTA,-0.136
16,AAGCTGTG,-0.0512
17,ACCATCAT,-0.0049
18,GTTAAATA,0.189
19,ACGGTACC,0.0672
20,ATGTACAA,-0.037
21,CGCTCCTC,0.0179
22,TAACCAGA,0.0704
23,ACTGCCAT,0.0855
24,ACAATATA,0.191
25,CTATGCAA,-0.145

row,Sequence,PBM E-score
1,CTCCAGTA,-0.0104
2,GTCGCAAA,0.224
3,ATCCTCTC,-0.0944
4,GGGAGGCA,-0.149
5,ACAAAGAT,0.088
6,AGGCTGTA,-0.0231
7,CGTACCCC,0.391
8,CGTTCCGA,0.361
9,ACCCTACG,-0.0494
10,AGTCATAC,0.182
11,ACCGGGAT,-0.12
12,GCACATCC,-0.149
13,CCACAACA,-0.0935
14,ACATGGAA,-0.0591
15,ACACCGGT,-0.0421
16,GAGTCACA,0.0539
17,CGACCAGC,-0.0299
18,ACATTATC,0.077
19,AATTCCTA,0.00142
20,CTAGGCAG,-0.206
21,TTCCCGAA,0.14
22,TCCTACGA,0.256
